Variants at the background level are over-represented here.
B1: TPR 5TU (parent)
chain: GGAUCUUCUCGAUCUAACAAAAAAGACAAAUCUGCCACAAAGCUUGAGAGCAUCUUCGGAUGCAGAGGCGGCAGCCUUCGGUGGCGCGAUAGCGCCAACGUUCUCAACUAUGACACGCAAAACGCGUGCUCCGUUGAAUGGAGUUUAUCAUG

Variants of: B1
Experiment: polymerase ribozyme fitness, log enrichment relative to wild type (log ratio); higher = more active; in vitro selection for triplet polymerase activity
Method in brief: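 Mutant libraries for each subunit of a heterodimeric triplet polymerase ribozyme were made by PCR and then transcribed. Each library underwent one round of in vitro selection in triplicate: annealing with a biotinylated primer, the partner subunit and triplets, frozen incubation at −7 °C, gel excision of extended constructs, streptavidin-bead capture and RT-PCR. Input and output libraries were Illumina-sequenced, and only genotypes with ≥10 input reads and ≥1 read per output were kept. Fitness is the logarithm, base 2, of genotype enrichment over wild-type enrichment, computed from inverse-variance-weighted replicate averages.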

| Variant | polymerase ribozyme fitness (log ratio) |
| --- | --- |
| C32G C87U A98U C149G | ≤ -4.2 |
| U31G C51G C63A A66G G83C A91U G124A A137U | ≤ -4.2 |
| U31C C69G C96U G117U C118G | -1.49 |
| U31G C87U U135G | ≤ -4.2 |
| C32A C43U C85U G92A A147C | ≤ -4.2 |
| U31G U90C A137C U148G C149U | ≤ -4.2 |
| U31G C87U U127A | -3.89 |
| U31G C69U U104C | ≤ -4.2 |
| C32G U55A | -3.78 |
| U31G G83A A138G | ≤ -4.2 |
| C32A C38A U44A C63U U134A | ≤ -4.2 |
| U31C G86U C96U | -0.694 |
| C32A G42U U77C A119G U148G | ≤ -4.2 |
| C32G G86A G143U | ≤ -4.2 |
| C32G U55G C79U C96G | -4.01 |
| U31C C93U C131U | 1.12 |
| U31C A37C G92U C96A A106C A122U G143C G152C | ≤ -4.2 |
| C32G A39C G70C C75G U78G C93U A122C C125U G140C | ≤ -4.2 |
| C32G G59A G83A A98C A110G | -4.09 |
| C32G A41C U55A C76U G94A C114A G141C C149A | ≤ -4.2 |
| U31C C57A G83U C118U G124U A142C | -2.24 |
| C32G C76G G81A | ≤ -4.2 |
| C32G U44A G50A G65C C87U | ≤ -4.2 |
| U31A U53G G84U C96G | ≤ -4.2 |

| Variant | polymerase ribozyme fitness (log ratio) |
| --- | --- |
| C32G G42C A49U G94C C95A G126A | -3.97 |
| U31A G50C C95A C116U U148A | ≤ -4.2 |
| U31C G68U C85G C99G A106C A142C | ≤ -4.2 |
| C32G A121C G124U A142G | ≤ -4.2 |
| U31C C32A G80C G81A A115C C118G G133A | ≤ -4.2 |
| U31A A106G | 0.863 |
| U31G U77G C93U A137C | ≤ -4.2 |
| U31G U33A A40C C96G A113C G124U U148A | ≤ -4.2 |
| C32G G48A C57A A66C U82C C93U U151A | ≤ -4.2 |
| C32A C51U G58U | ≤ -4.2 |
| C32G G46C C105U A120U | ≤ -4.2 |
| C32A C54A U109A C132G | ≤ -4.2 |
| C32G A37C G59C C75G C76A A97U C114G | ≤ -4.2 |
| U31G C75G C96G U130G | ≤ -4.2 |
| C32A C54G G58A G74A C125U A147C | ≤ -4.2 |
| C32G A37G C38U U56A A119C | ≤ -4.2 |
| C32A G86A C93A C114A | ≤ -4.2 |
| U31C A52C C54U U139C G143U | ≤ -4.2 |
| U31G G81U C87G U104G G128C | ≤ -4.2 |
| C32G C57G A73U C85A U145G | ≤ -4.2 |
| U31C C76U C96U G136C U144C U148C | -3.9 |
| C32G A40C A49G A66G C72U A122U U130G | ≤ -4.2 |
| C32A G46A C79G C85G G100U A121G | ≤ -4.2 |
| C32A G42A G59U C85A U101G C108U U151C | ≤ -4.2 |

| Variant | polymerase ribozyme fitness (log ratio) |
| --- | --- |
| U31A C85U C95A A110U | ≤ -4.2 |
| C32G A47C C99U U102A | ≤ -4.2 |
| C32A A47C C51U C76A G81U G83A | ≤ -4.2 |
| U31C G94C C105A | -1.61 |
| C32G U55A G81U C85G | ≤ -4.2 |
| U31G A97C A106C | ≤ -4.2 |
| U31C C38G A47G C51A U56A G83C U146C U148C | ≤ -4.2 |
| C32G C51U G94U C99A A119C G126U A147G | ≤ -4.2 |
| C32G G92A U111G | -4.13 |
| U31A A89C C149G | ≤ -4.2 |
| C32G A41C G68C C114G G133A | ≤ -4.2 |
| C32G | -3.19 |
| C32A | -2.96 |
| C32G G34U C69A | ≤ -4.2 |
| C32A G59A G83A A97G C105U U134A | ≤ -4.2 |
| C32A G80A A121G G133C | ≤ -4.2 |
| C32G C54U G94A | ≤ -4.2 |
| C32A A52C A73G G81U C93G U111G | ≤ -4.2 |
| C32G A49C U53A C85U G86U C99A A138G A150G | -4.03 |
| U31G C103G A106U | ≤ -4.2 |
| U31A C76G G86U G143U | ≤ -4.2 |
| U31G U44A C69A G71U | ≤ -4.2 |
| C32G C96U C116G G141U | ≤ -4.2 |
| U31G G50U U82C A106C | ≤ -4.2 |

| Variant | polymerase ribozyme fitness (log ratio) |
| --- | --- |
| U31C C93G U104G A120U | ≤ -4.2 |
| C32G A52C C85A A89G A115C | ≤ -4.2 |
| U31C C38A C103A C116U A119U G141U U146A | ≤ -4.2 |
| C32G C87A A107G | ≤ -4.2 |
| C32A G58C | ≤ -4.2 |
| C32A G58U | ≤ -4.2 |
| U31C C32A G84U A98G C108A G140A | ≤ -4.2 |
| C32A C76G C87G A91U A98G U102A | ≤ -4.2 |
| U31G C35A C54U G62A C75G | ≤ -4.2 |
| C32G A37G G59U A60U U77A C93G U102G G133C U134C U145A | ≤ -4.2 |
| C32G C35U C72G A106C | ≤ -4.2 |
| U31G G48C U56C G86C C96G | ≤ -4.2 |
| C32A A66G G84C U144A G152A | ≤ -4.2 |
| U31A G67A C103G A113U C132U | ≤ -4.2 |
| U31G G58A C85A C114G A115U | -4.05 |
| C32A A49U C63U A97U U109G | ≤ -4.2 |
| C32A A39U C79A C85A C129G | ≤ -4.2 |
| U31G C85U | 0.998 |
| U31A C85U C114U | -1.15 |
| C32G G42C A52C A107G A110G A138G | ≤ -4.2 |
| C32A U44C A49U G94C C103G | ≤ -4.2 |
| U31G C57G G58A A106G U111G G143U U144A | ≤ -4.2 |
| U31G A40G U61A C87U G112U G141C | ≤ -4.2 |
| U31G U45G A47C C79A A89C A97G | ≤ -4.2 |

| Variant | polymerase ribozyme fitness (log ratio) |
| --- | --- |
| C32G C54A C57A C87U G141U | ≤ -4.2 |
| C32G G42C A49U A107G | ≤ -4.2 |
| C32G A41C C51U A52C C75U G84U A113C | ≤ -4.2 |
| C32G U56C U82C C114U G140A | ≤ -4.2 |
| C32G U53A U55G C75A | ≤ -4.2 |
| U31C G83C C87U U104G U134A G140A | ≤ -4.2 |
| U31C C93U A120G | 0.174 |
| U31G G42C C51U G94A U102C G124C G136U G152A | ≤ -4.2 |
| U31C C54G C76U C79A A89G U127C | ≤ -4.2 |
| U31C G71A G86C C118A U151G | ≤ -4.2 |
| U31C C36G A73U G143U C149A | ≤ -4.2 |
| U31C G42C G68C G92U | ≤ -4.2 |
| C32A A52G G88A | ≤ -4.2 |
| C32G A49C C72U U151A | ≤ -4.2 |
| C32A G50U A64C G94A | ≤ -4.2 |
| U31G C79U G140A A150U | ≤ -4.2 |
| U31A G50A C51G A97G A115G | ≤ -4.2 |
| C32A U53G C85U C96G G136C | ≤ -4.2 |
| C32A U44A U55A G86U C87U U127C A138U G143U U151A | ≤ -4.2 |
| U31C C63U G80U C103G G140U | ≤ -4.2 |
| U31G C32U A41G G48A U61A C108G G141A G143C | ≤ -4.2 |
| U31G A52C C93A C95G G117A C123U | ≤ -4.2 |
| C32G G88A A106G C114G G140C | ≤ -4.2 |
| C32A G59A G94A A97U C129A A137C | ≤ -4.2 |

| Variant | polymerase ribozyme fitness (log ratio) |
| --- | --- |
| U31C A52C C87A C105U A121G U148A | ≤ -4.2 |
| U31G G42U G58U G59A G86U U104G C131G G136C | ≤ -4.2 |
| C32G C43U C54U A73G U77G | ≤ -4.2 |
| U31G C95A C123G | 0.831 |
| U31G A39U C85G U102G | ≤ -4.2 |
| C32G C87G C93U C99G U104A C123U | ≤ -4.2 |
| U31C G58A G94U G143U | -2.9 |
| C32G G81C C87U G88U A91G A107C C114A G141C | ≤ -4.2 |
| U31A U111G A119U A121C A137C | ≤ -4.2 |
| C32G C54U G80C U109G | ≤ -4.2 |
| U31C C32G A52U C85U A91U A119C U139G A150G | ≤ -4.2 |
| C32A U77G G88A G126C G143U | ≤ -4.2 |
| C32G G71U C87G | ≤ -4.2 |
| C32G G48C U53C U82G | ≤ -4.2 |
| U31A U44A C69A C95A A98U | ≤ -4.2 |
| C32A U45G G46A C99G C103G U127C U148G | ≤ -4.2 |
| C32G C38G C93G G133U | -3.72 |
| U31C G48C G67A C95U A142U U144C G152A | ≤ -4.2 |
| U31C A60C C95A C99G A122G | -3.66 |
| C32G G42A U77C G84U | ≤ -4.2 |
| C32A A52G C75A G86U C99U C114U C125U | ≤ -4.2 |
| U31C A41C C43U G50C U78A U145A | ≤ -4.2 |
| U31A C51G G80A C85U G88C C114U G128U G141U | ≤ -4.2 |
| C32A U55A C76U A89G G92U U135G | ≤ -4.2 |

| Variant | polymerase ribozyme fitness (log ratio) |
| --- | --- |
| C32G C87U | -3.63 |
| U31G G74A G81A U82G | ≤ -4.2 |
| U31A C36A A66U U77A C108A | ≤ -4.2 |
| C32G U44A C96U U145A | ≤ -4.2 |
| U31A C93U | 0.0654 |
| C32G C99U | ≤ -4.2 |
| C32A C43U A52G G86A A137G U145C | ≤ -4.2 |
| U31A G50C C51G U53G C93G C103A G112A A119G U134G U135A | ≤ -4.2 |
| U31G C54A G88A G126A G141A | ≤ -4.2 |
| U31C G42C C54G U139C C149G | ≤ -4.2 |
| U31G A60G G152U | -3.16 |
| U31G A52C G83A | -2.81 |
| U31G C63U G86A A138G | ≤ -4.2 |
| C32G A40G C57A G83U A110U | ≤ -4.2 |
| U31C A97G U135C U146C | -1.76 |
| C32G C85U G86C C93A C116U A120C U127A U144A C149U U151A | ≤ -4.2 |
| C32G C36U C69U | ≤ -4.2 |
| C32A U56A G58U A91U | ≤ -4.2 |
| U31C A60U C72G C87A U139C | ≤ -4.2 |
| U31G C32G G58U G83A A89G U144G | ≤ -4.2 |
| U31A G48C G92U G94A A97C U101C | ≤ -4.2 |
| U31A C54U G83U G94U G124A A142C | -4.09 |
| C32G U53A C76A C99U | ≤ -4.2 |
